# Measured values: the supplement of paper PMC8728848
# Some of the results follow.
# Columns and labels:
# Test in all cases: glycan array binding signal (z-score within array); higher = stronger binding
# Conditions in all cases: glycan notation: IUPAC condensed, linker removed
# [1] = biological target: Neu5Ac(a2-3)Gal(b1-4)GlcNAc(b1-2)[Neu5Ac(a2-3)Gal(b1-4)GlcNAc(b1-4)]Man(a1-3)[GlcNAc(b1-4)][Neu5Ac(a2-3)Gal(b1-4)GlcNAc(b1-4)Man(a1-6)]Man(b1-4)GlcNAc(b1-4)GlcNAc
# Outline: (§1)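 The binding signal is a Z-score computed within each array and averaged over linkers. Arrays of the same protein sequence at different concentrations or buffers were also averaged together. Data originate from 3228 arrays in the Consortium for Functional Glycomics database, kept only where the protein sequence was available.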
# [2] = biological target: Neu5Ac(a2-3)Gal(b1-4)GlcNAc(b1-2)[Neu5Ac(a2-3)Gal(b1-4)GlcNAc(b1-6)]Man(a1-6)[Neu5Ac(a2-3)Gal(b1-4)GlcNAc(b1-2)Man(a1-3)]Man(b1-4)GlcNAc(b1-4)GlcNAc
# Outline: as §1
# [3] = biological target: Neu5Ac(a2-3)Gal(b1-4)GlcNAc(b1-2)[Neu5Ac(a2-3)Gal(b1-4)GlcNAc(b1-6)]Man(a1-6)[Neu5Ac(a2-3)Gal(b1-4)GlcNAc(b1-2)Man(a1-3)][GlcNAc(b1-4)]Man(b1-4)GlcNAc(b1-4)GlcNAc
# Outline: as §1
# [4] = biological target: Neu5Ac(a2-3)Gal(b1-4)GlcNAc(b1-3)Gal
# Outline: as §1
# [5] = biological target: Neu5Ac(a2-3)Gal(b1-4)GlcNAc(b1-3)Gal(b1-3)GlcNAc
# Outline: as §1
# [6] = biological target: Neu5Ac(a2-3)Gal(b1-4)GlcNAc(b1-3)Gal(b1-4)GlcNAc
# Outline: as §1
# [7] = biological target: Neu5Ac(a2-3)Gal(b1-4)GlcNAc(b1-3)Gal(b1-4)GlcNAc(b1-2)Man(a1-3)[Neu5Ac(a2-3)Gal(b1-4)GlcNAc(b1-3)Gal(b1-4)GlcNAc(b1-2)Man(a1-6)]Man(b1-4)GlcNAc(b1-4)GlcNAc
# Outline: as §1
# [8] = biological target: Neu5Ac(a2-3)Gal(b1-4)GlcNAc(b1-3)Gal(b1-4)GlcNAc(b1-3)Gal(b1-4)GlcNAc
# Outline: as §1
# [9] = biological target: Neu5Ac(a2-3)Gal(b1-4)GlcNAc(b1-3)Gal(b1-4)GlcNAc(b1-3)Gal(b1-4)GlcNAc(b1-2)Man(a1-3)[Neu5Ac(a2-3)Gal(b1-4)GlcNAc(b1-3)Gal(b1-4)GlcNAc(b1-3)Gal(b1-4)GlcNAc(b1-2)Man(a1-6)]GalNAc
# Outline: as §1
# [10] = biological target: Neu5Ac(a2-3)Gal(b1-4)GlcNAc(b1-3)Gal(b1-4)GlcNAc(b1-3)GalNAc
# Outline: as §1
# [11] = biological target: Neu5Ac(a2-3)Gal(b1-4)GlcNAc(b1-3)Gal(b1-4)GlcNAc(b1-3)[Neu5Ac(a2-3)Gal(b1-4)GlcNAc(b1-3)Gal(b1-4)GlcNAc(b1-6)]GalNAc
# Outline: as §1
# [12] = biological target: Neu5Ac(a2-3)Gal(b1-4)GlcNAc(b1-3)Gal(b1-4)GlcNAc(b1-6)[Gal(b1-3)]GalNAc
# Outline: as §1
# [13] = biological target: Neu5Ac(a2-3)Gal(b1-4)GlcNAc(b1-3)Gal(b1-4)[Fuc(a1-3)]GlcNAc
# Outline: as §1
# [14] = biological target: Neu5Ac(a2-3)Gal(b1-4)GlcNAc(b1-3)GalNAc
# Outline: as §1
# [15] = biological target: Neu5Ac(a2-3)Gal(b1-4)GlcNAc(b1-3)[Neu5Ac(a2-3)Gal(b1-4)GlcNAc(b1-6)]GalNAc
# Outline: as §1
# [16] = biological target: Neu5Ac(a2-3)Gal(b1-4)GlcNAc(b1-6)GalNAc
# Outline: as §1
# [17] = biological target: Neu5Ac(a2-3)Gal(b1-4)GlcNAc(b1-6)[Gal(b1-3)]GalNAc
# Outline: as §1
# [18] = biological target: Neu5Ac(a2-3)Gal(b1-4)GlcNAc(b1-6)[Neu5Ac(a2-3)Gal(b1-3)]GalNAc
# Outline: as §1
# [19] = biological target: Neu5Ac(a2-3)Gal(b1-4)GlcNAc6S
# Outline: as §1
# [20] = biological target: Neu5Ac(a2-3)Gal(b1-4)[Fuc(a1-3)]GlcNAc
# Outline: as §1
# [21] = biological target: Neu5Ac(a2-3)Gal(b1-4)[Fuc(a1-3)]GlcNAc(b1-2)Man
# Outline: as §1
# [22] = biological target: Neu5Ac(a2-3)Gal(b1-4)[Fuc(a1-3)]GlcNAc(b1-3)Gal
# Outline: as §1
# [23] = biological target: Neu5Ac(a2-3)Gal(b1-4)[Fuc(a1-3)]GlcNAc(b1-3)Gal(b1-4)GlcNAc
# Outline: as §1
# [24] = biological target: Neu5Ac(a2-3)Gal(b1-4)[Fuc(a1-3)]GlcNAc(b1-3)Gal(b1-4)[Fuc(a1-3)]GlcNAc(b1-3)Gal(b1-4)[Fuc(a1-3)]GlcNAc
# Outline: as §1
# [25] = biological target: Neu5Ac(a2-3)Gal(b1-4)[Fuc(a1-3)]GlcNAc(b1-3)GalNAc
# Outline: as §1
# [26] = biological target: Neu5Ac(a2-3)Gal(b1-4)[Fuc(a1-3)]GlcNAc(b1-6)[Gal(b1-3)]GalNAc
# Outline: as §1
# [27] = biological target: Neu5Ac(a2-3)Gal(b1-4)[Fuc(a1-3)]GlcNAc(b1-6)[Neu5Ac(a2-3)Gal(b1-3)]GalNAc
# Outline: as §1
# [28] = biological target: Neu5Ac(a2-3)Gal(b1-4)[Fuc(a1-3)]GlcNAc6S
# Outline: as §1
# [29] = biological target: Neu5Ac(a2-3)Gal6S(b1-4)GlcNAc
# Outline: as §1
# [30] = biological target: Neu5Ac(a2-3)Gal6S(b1-4)[Fuc(a1-3)]GlcNAc
# Outline: as §1
# Neu5Ac(a2-3)GalNAc = biological target: Neu5Ac(a2-3)GalNAc
# Outline: as §1
# [31] = biological target: Neu5Ac(a2-3)GalNAc(b1-4)GlcNAc
# Outline: as §1
# [32] = biological target: Neu5Ac(a2-3)[GalNAc(b1-4)]Gal(b1-4)Glc
# Outline: as §1
# [33] = biological target: Neu5Ac(a2-3)[GalNAc(b1-4)]Gal(b1-4)GlcNAc
# Outline: as §1
# [34] = biological target: Neu5Ac(a2-3)[GalNAc(b1-4)]Gal(b1-4)GlcNAc(b1-3)GalNAc
# Outline: as §1
# [35] = biological target: Neu5Ac(a2-3)[Neu5Ac(a2-6)]GalNAc
# Outline: as §1
# Neu5Ac(a2-6)Gal = biological target: Neu5Ac(a2-6)Gal
# Outline: as §1
# [36] = biological target: Neu5Ac(a2-6)Gal(b1-3)GlcNAc(b1-3)[Gal(b1-4)GlcNAc(b1-6)]Gal(b1-4)Glc
# Outline: as §1
# Neu5Ac(a2-6)Gal(b1-4)Glc = biological target: Neu5Ac(a2-6)Gal(b1-4)Glc
# Outline: as §1
# [37] = biological target: Neu5Ac(a2-6)Gal(b1-4)GlcNAc
# Outline: as §1
# [38] = biological target: Neu5Ac(a2-6)Gal(b1-4)GlcNAc(b1-2)Man
# Outline: as §1
# [39] = biological target: Neu5Ac(a2-6)Gal(b1-4)GlcNAc(b1-2)Man(a1-3)Man(b1-4)GlcNAc(b1-4)GlcNAc
# Outline: as §1
# [40] = biological target: Neu5Ac(a2-6)Gal(b1-4)GlcNAc(b1-2)Man(a1-3)[Gal(b1-4)GlcNAc(b1-2)Man(a1-6)]Man(b1-4)GlcNAc(b1-4)GlcNAc
# Outline: as §1
# [41] = biological target: Neu5Ac(a2-6)Gal(b1-4)GlcNAc(b1-2)Man(a1-3)[GlcNAc(b1-2)Man(a1-6)]Man(b1-4)GlcNAc(b1-4)GlcNAc
# Outline: as §1
# [42] = biological target: Neu5Ac(a2-6)Gal(b1-4)GlcNAc(b1-2)Man(a1-3)[GlcNAc(b1-4)][Neu5Ac(a2-6)Gal(b1-4)GlcNAc(b1-2)Man(a1-6)]Man(b1-4)GlcNAc(b1-4)GlcNAc
# Outline: as §1
binder,measurement,setting,value
"MPA (Maclura pomifera), P18674 (protein) GVTFDDGAYTGIREINFEYNSETAIGGLRVTYDLNGMPFVAEDHKSFITGFKPVKISLEFPSEYIVEVSGYVGKVEGYTVIRSLTFKTNKQTYGPYGVTNGTPFSLPIENGLIVGFKGSIGYWLDYFSIYLSL",glycan array binding signal (z-score),[1],-0.281
same,glycan array binding signal (z-score),[2],-0.223
same,glycan array binding signal (z-score),[3],-0.334
same,glycan array binding signal (z-score),[4],-0.379
same,glycan array binding signal (z-score),[5],-0.323
same,glycan array binding signal (z-score),[6],-0.214
same,glycan array binding signal (z-score),[7],1.94
same,glycan array binding signal (z-score),[8],-0.222
same,glycan array binding signal (z-score),[9],3.56
same,glycan array binding signal (z-score),[10],-0.253
same,glycan array binding signal (z-score),[11],0.253
same,glycan array binding signal (z-score),[12],-0.045
same,glycan array binding signal (z-score),[13],-0.193
same,glycan array binding signal (z-score),[14],-0.215
same,glycan array binding signal (z-score),[15],-0.249
same,glycan array binding signal (z-score),[16],-0.205
same,glycan array binding signal (z-score),[17],-0.114
same,glycan array binding signal (z-score),[18],-0.111
same,glycan array binding signal (z-score),[19],-0.331
same,glycan array binding signal (z-score),[20],-0.223
same,glycan array binding signal (z-score),[21],-0.296
same,glycan array binding signal (z-score),[22],-0.285
same,glycan array binding signal (z-score),[23],-0.137
same,glycan array binding signal (z-score),[24],-0.116
same,glycan array binding signal (z-score),[25],0.018
same,glycan array binding signal (z-score),[26],0.082
same,glycan array binding signal (z-score),[27],-0.03
same,glycan array binding signal (z-score),[28],-0.118
same,glycan array binding signal (z-score),[29],-0.268
same,glycan array binding signal (z-score),[30],-0.197
same,glycan array binding signal (z-score),Neu5Ac(a2-3)GalNAc,-0.266
same,glycan array binding signal (z-score),[31],-0.204
same,glycan array binding signal (z-score),[32],-0.201
same,glycan array binding signal (z-score),[33],-0.218
same,glycan array binding signal (z-score),[34],-0.089
same,glycan array binding signal (z-score),[35],-0.186
same,glycan array binding signal (z-score),Neu5Ac(a2-6)Gal,-0.228
same,glycan array binding signal (z-score),[36],-0.172
same,glycan array binding signal (z-score),Neu5Ac(a2-6)Gal(b1-4)Glc,-0.108
same,glycan array binding signal (z-score),[37],-0.226
same,glycan array binding signal (z-score),[38],-0.281
same,glycan array binding signal (z-score),[39],-0.17
same,glycan array binding signal (z-score),[40],-0.065
same,glycan array binding signal (z-score),[41],-0.302
same,glycan array binding signal (z-score),[42],-0.496
